In the supplement of paper PMC8728848:
The list shows a part of the results.

Tests used:
Experiment in all cases: glycan array binding signal (z-score within array); higher = stronger binding
Details in all cases: glycan notation: IUPAC condensed, linker removed
[1] = target: Neu5Gc(a2-8)Neu5Gc(a2-3)Gal(b1-4)GlcNAc(b1-3)Gal(b1-4)GlcNAc
Procedure, shortened: (§1)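 The binding signal is a Z-score computed within each array. Data were drawn from 3228 arrays in the Consortium for Functional Glycomics database, restricted to those with a known protein sequence. Scores were averaged over arrays of the same protein sequence at different concentrations or buffers, and over linkers, and negative values can be taken as non-binding.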

[2] = target: Neu5Gc(a2-8)Neu5Gc(a2-6)Gal(b1-4)GlcNAc
Procedure, shortened: as §1

[3] = target: Neu5Gc(b2-6)Gal(b1-4)GlcNAc
Procedure, shortened: as §1

B1: DC-ASGPR-short (Homo sapiens) (protein)
chain: MTRTYENFQYLENKVKVQGFKNGPLPLQSLLQRLRSGPCHLLLSLGLGLLLLVIICVVGFQNSKFQRDLVTLRTDFSNFTSNTVAEIQALTSQGSSLEETIASLKAEVEGFKQERQAVHSEMLLRVQQLVQDLKKLTCQVATLNNNASTEGTCCPVNWVEHQDSCYWFSHSGMSWAEAEKYCQLKNAHLVVINSREEQNFVQKYLGSAYTWMGLSDPEGAWKWVDGTDYATGFQNWKPGQPDDWQGHGLGGGEDCAHFHPDGRWNDDVCQRPYHWVCEAGLGQTSQESH
[1]
  glycan array binding signal (z-score): -0.28
[2]
  glycan array binding signal (z-score): -0.279
[3]
  glycan array binding signal (z-score): -0.278
